Measurements from the supplement of paper PMC8183993.
Where a name gives a salt, the structure may show the parent alone. ± gives the standard deviation of the averaged measurements. Over roughly 3,100 compounds, “mean cytoplasmic OPP incorporation (global translation) relative to DMSO” has its median near 100; the lowest 2% begin near 56. This is one part of the list.

tested on: U2OS; assay: mean cytoplasmic OPP incorporation (global translation) relative to DMSO (% of DMSO); higher = more protein synthesis; settings: 10 µM; 24 h
Method: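 Primary image-based screen in U2OS cells: compounds at 10 uM for 24 h, then a 1 h o-propargyl-puromycin (OPP) pulse, click labelling, and high-throughput microscopy. Mean cytoplasmic OPP intensity and nuclei count were normalised to DMSO wells within each plate (DMSO = 100) and averaged over triplicate plates.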

| Compound | mean cytoplasmic OPP incorporation |
| --- | --- |
| CCC1NC(=O)c2cc(S(N)(=O)=O)c(Cl)cc2N1 (stereo not drawn) [Quinethazone] | 103 |
| COc1ccccc1N1CCN(CCCCNC(=O)c2ccc3ccccc3c2)CC1 | 112 |
| Cc1c(Cl)cccc1Nc1ncccc1C(=O)O [Clonixin Lysinate] | 105 |
| CCC[C@H](NC(=O)/C(C#N)=C/c1cccc(Br)n1)c1ccccc1 | 27.2 |
| Cc1ccc(/C(=C\CN2CCCC2)c2ccccn2)cc1 [Triprolidine hydrochloride] | 101 |
| Cc1ccc(/C(=C\CN2CCCC2)c2ccccn2)cc1 [trans-Triprolidine hydrochloride] | 99.5 |
| CC(C)(O/N=C(\C(=O)N[C@@H]1C(=O)N2C(C(=O)[O-])=C(C[n+]3ccccc3)CS[C@H]12)c1csc(N)n1)C(=O)O [Ceftazidime pentahydrate] | 83.2 |
| C=C1/C(=C\C=C2/CCC[C@]3(C)[C@@H]([C@H](C)CCCC(C)(C)O)CC[C@@H]23)C[C@@H](O)C[C@@H]1O [Calcitriol (Rocaltrol)] | 102 |
| C=C1/C(=C\C=C2/CCC[C@]3(C)[C@@H]([C@H](C)CCCC(C)(C)O)CC[C@@H]23)C[C@@H](O)C[C@@H]1O [1a,25-Dihydroxyvitamin D3] | 101 |
| CCc1c2c(nc3ccc(OC(=O)N4CCC(N5CCCCC5)CC4)cc13)-c1cc3c(c(=O)n1C2)COC(=O)[C@]3(O)CC [Irinotecan hydrochloride trihydrate] | 99.7 |
| CCc1c2c(nc3ccc(OC(=O)N4CCC(N5CCCCC5)CC4)cc13)-c1cc3c(c(=O)n1C2)COC(=O)[C@]3(O)CC [Irinotecan] | 97.2 |
| CCc1c2c(nc3ccc(OC(=O)N4CCC(N5CCCCC5)CC4)cc13)-c1cc3c(c(=O)n1C2)COC(=O)[C@]3(O)CC | 95.7 |
| CNCCC=C1c2ccccc2CCc2ccccc21 [Nortriptyline hydrochloride] | 109 |
| OC[C@H]1O[C@@H](OCCc2ccc(O)cc2)[C@H](O)[C@@H](O)[C@@H]1O [Salidroside (Rhodioloside)] | 121 |
| CC1=C(/C=C/C(C)=C/C=C/C(C)=C/C(=O)O)C(C)(C)CCC1O (stereo not drawn) [4-Hydroxyretinoic acid] | 101 |
| C[C@H]1[C@H](NC(=O)/C(=N\OC(C)(C)C(=O)O)c2csc(N)n2)C(=O)N1S(=O)(=O)O [Aztreonam] | 97.9 |
| C[C@H]1[C@H](NC(=O)/C(=N\OC(C)(C)C(=O)O)c2csc(N)n2)C(=O)N1S(=O)(=O)O [Aztreonam (Azactam, Cayston)] | 104 |
| O=C(NC(NC(=S)Nc1ccc(F)c([N+](=O)[O-])c1)C(Cl)(Cl)Cl)C(c1ccccc1)c1ccccc1 (stereo not drawn) | 94.8 ± 9.8 |
